Experimental data published in PubChem BioAssay AID1159614 (National Center for Advancing Translational Sciences (NCATS), 2016).
Among all 45,000 compounds or so, about 65 (0.1%) were called active. The call rests on the fitted dose curve; in most records, active means well fitted activation curve with a large enough effect; inconclusive means small, poorly fitted or top-dose-only effect; inactive means no such curve, though single readings can be large or run the other way. The list shows a part of the results.

Target: Galactocerebrosidase (Homo sapiens) (UniProt P54803)
Assay: A Novel Cell-Based Assay to Identify Small Molecules for B -Galactocerebrosidase; further: 0% is about no effect; nearly all actives have a fitted effect of over 65% in size
Settings: 145M-Twi-hGALC-G270D cells (Twitcher mouse brain line with human GALC G270D), HMU-beta-Gal fluorescence, 48 h; series mostly up to 57.5 µM; activation: at the top concentration
Summary of the method: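 Brain-derived Twitcher mouse 145M-Twi cells stably expressing human GALC-G270D or wild-type GALC, treated live, then residual GALC activity read by fluorescence of HMU-b-Gal substrate (0.1 mM final) in citrate-phosphate buffer pH 5.2 with sodium taurocholate. Signal increase indicates enhancement.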

Chain of UniProt P54803 (P54803 whole entry, looked up): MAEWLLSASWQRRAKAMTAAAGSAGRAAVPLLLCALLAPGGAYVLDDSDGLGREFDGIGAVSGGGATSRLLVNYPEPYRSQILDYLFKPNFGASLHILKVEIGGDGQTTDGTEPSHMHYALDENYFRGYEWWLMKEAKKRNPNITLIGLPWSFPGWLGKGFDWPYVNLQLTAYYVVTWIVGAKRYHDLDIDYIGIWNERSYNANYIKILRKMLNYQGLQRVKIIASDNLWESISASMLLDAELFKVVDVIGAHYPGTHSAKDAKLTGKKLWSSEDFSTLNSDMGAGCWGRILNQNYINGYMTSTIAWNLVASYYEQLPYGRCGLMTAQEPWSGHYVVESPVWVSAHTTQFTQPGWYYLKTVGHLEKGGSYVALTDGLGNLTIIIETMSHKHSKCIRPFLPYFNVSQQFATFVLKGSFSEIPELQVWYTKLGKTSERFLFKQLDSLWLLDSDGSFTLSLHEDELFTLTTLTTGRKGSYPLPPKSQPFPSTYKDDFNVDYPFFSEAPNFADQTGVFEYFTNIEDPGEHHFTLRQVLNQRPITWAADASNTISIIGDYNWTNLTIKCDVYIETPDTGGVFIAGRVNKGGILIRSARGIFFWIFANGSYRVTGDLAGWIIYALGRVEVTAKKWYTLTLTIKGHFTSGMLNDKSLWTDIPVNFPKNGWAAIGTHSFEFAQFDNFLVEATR

activation, inactive:
O=C1Nc2cc(Cl)ccc2Oc2ccccc21 -12.5%
CN1CCN(C(=O)c2ccc3c(c2)N(Cc2ccc(F)cc2)C(=O)c2ccccc2S3=O)CC1 (centres undefined) -6.28%
CCC(=O)N1c2ccccc2C(C)(c2ccccc2)CC1(C)C (centres undefined) -8.84%
COc1ccc(CCNc2oc(COc3cccc(C)c3)nc2C#N)cc1OC -4.84%
Cc1sc2c(c1C)c(=O)n(Cc1ccccc1)c(=O)n2CC(=O)N(C)c1ccccc1 -13.5%
CCCNC(=O)c1cnn2c(C(F)F)cc(-c3ccccc3)nc12 -8.76%
CC(C)Oc1ccc(NC(=O)c2cc3ccccc3o2)cc1 4.3%
CC1(C)CC(=O)c2cc(-c3nc(-c4ccc(Cl)cc4)cs3)c(=O)[nH]c2C1 -14.1%
CCN1CCc2c(sc(-n3cccc3)c2C(C)NC(=O)Nc2cc(Cl)c(OC)cc2OC)C1 (centres undefined) -15.8%
Cc1ccc(NC(=O)c2cc(S(=O)(=O)N3CCCCCC3)ccc2F)cc1F -16.3%
CC(=O)c1cccc(NC(=O)CCc2nc3cccnc3n2Cc2cccs2)c1 -22.9%
CC1=C(/C=C/C(C)=C/C=C/C(C)=C/C(=O)Nc2ccc(O)cc2)C(C)(C)CCC1 -6.59%
CC(=O)N1CCc2cc(Br)cc(S(=O)(=O)NCCc3ccc(Cl)cc3)c21 -7.01%
COc1ccc(-c2nc(Cn3c(=O)cc(-c4ccccc4)c4c(C)nn(C)c43)c(C)o2)cc1OC -8.97%
CC1CCN(S(=O)(=O)c2ccc3c(ccc(=O)n3CC(=O)NCc3ccc(Cl)cc3)c2)CC1 -20%
CCOc1ccc(Nc2nc3c(S(=O)(=O)c4ccc(CC)cc4)nnn3c3ccc(Cl)cc23)cc1 -20.8%
CCNc1nc(NC(C)(C)C)nc(Oc2ccc(=O)n(-c3ccccc3)n2)n1 1.82%
CCc1ccccc1N1CC(c2nc3ccccc3n2CCOc2ccc(Cl)c(C)c2)CC1=O (centres undefined) 9.68%
COc1ccc(Cl)cc1N=C1NC(=O)CC(C(=O)Nc2ccccc2C(F)(F)F)S1 (centres undefined) -40.7%
COc1ccc(S(=O)(=O)N(CC(=O)Nc2cc(C)cc(C)c2)c2ccc(Cl)cc2)cc1 17.2%
CCn1c(C(=O)N2CCC(C(=O)N3CCN(c4ccc(OC)cc4)CC3)CC2)cc2sccc21 -9.37%
CN(C)c1ccc(C(=O)Nc2c(C(=O)NC(C)(C)C)oc3ccccc23)cc1 -24.3%
Cc1cc(C)cc(NC(=O)C(CC(C)C)NC(=O)C2CCCCC2)c1 (centres undefined) -9.26%
CC(C)Oc1ccc(CNC(=O)c2ccc3nc(C(C)C)oc3c2)cc1 3.04%
COc1ccc(CCNc2nc3ccc(C)cc3n3cnnc23)cc1OC -8.38%
O=C(c1cccn1-c1nnc(N2CCCCC2)s1)N1CCN(c2ccc(Cl)cc2)CC1 -18.5%
CCOC(=O)CSc1nc(-c2ccc(F)cc2)cc(C(F)(F)F)c1C#N -9.39%
CC(C)(C)C1CCc2c(sc(NC(=O)c3ccccc3F)c2C(=O)NCc2ccco2)C1 (centres undefined) -15%
Cc1cc(C)cc(C(=O)Nc2cccc(-c3nc4ncccc4o3)c2C)c1 -3.4%
COc1ccccc1CNC(=O)CCCCn1c(=O)c2ccccc2n(Cc2ccccc2C)c1=O 0.182%
CC(=O)c1cccc(NC(=O)c2ccc(Cl)c(S(=O)(=O)N3CCOCC3)c2)c1 -7.61%
CC(=O)c1c(C)n(-c2ccc(Cl)cc2)c2ccc(OC(=O)COc3ccccc3)cc12 -19.9%
NC(=O)c1ncn([C@@H]2O[C@H](CO)[C@@H](O)[C@H]2O)c1N -4.43%
COc1ccc(-c2nc3scc(CCNS(=O)(=O)c4c(C)cc(C)cc4C)n3n2)cc1OC -15.1%
O=C(NCCn1cc(SCc2ccccc2)c2ccccc21)c1cccs1 11%
CCc1nn2c(=O)cc(COC(=O)c3ccc4c(c3)OCO4)nc2s1 -2.58%
CN(Cc1ccccc1)S(=O)(=O)c1nnc(NC(=O)c2ccccc2Cl)s1 -10.1%
c1ccc(N2CCN(Cc3nnc(-c4ccc5c(c4)OCO5)o3)CC2)cc1 -25.4%
CCOC(=O)c1cc2c(=O)n3ccccc3nc2n(CCOC)c1=NC(=O)c1cc2ccccc2o1 -14%
COc1ccc(C2=NS(=O)(=O)N(C)C(C(=O)Nc3ccc(OC(F)(F)F)cc3)=C2)cc1 -8.78%
CCOC(=O)c1noc2nc(C)n(Cc3cccc(C#N)c3)c(=O)c12 -28.5%
COc1ccc(CCNC(=O)c2ccc3c(c2)nc2n3CCC(C)C2)cc1OC (centres undefined) -25.1%
CC(=O)c1ccc(NC(=O)C2CCC(CNS(=O)(=O)c3cccs3)CC2)cc1 (centres undefined) -11.5%
Cc1cccc(NC(=O)Cn2c(=O)ccc3cc(S(=O)(=O)N4CCCC4)ccc32)c1C -5.99%
COc1cccc(Cc2nc3ccccc3nc2SCC(=O)NCc2ccc(C)cc2)c1 2.27%
Cc1c(NC(=O)c2cc(-c3ccc(Cl)cc3)on2)c(=O)n(-c2ccccc2)n1C 3.53%
CCOC(=O)c1[nH]c(C)c(CCC(=O)NCc2ccc(OC)cc2)c1C -15.4%
COc1ccc(N2C(=O)CS(=O)(=O)C23C(=O)N(Cc2ccc(C)cc2)c2ccccc23)cc1Cl (centres undefined) -23%
O=C(NCc1ccc(F)cc1)c1ccc2c(c1)nnn2C1CCCC1 -16.4%
CCOc1ccc(NC(=O)N2CCN(Cc3cc(=O)n4nc(-c5ccc(OC)cc5)sc4n3)CC2)cc1 -7.15%
CCNC(=O)c1ccc(CSc2nc3ccncc3n2Cc2ccc(F)cc2)cc1 -26.5%
Cc1ccccc1-c1nnc(SCC(=O)N(C)C2CCCCC2)o1 -16%
Cc1ccc(NC(=O)N2CCN(c3cc(-c4noc(C)n4)ccc3C)CC2)c(C)c1 -15.2%
Cc1cccc(CCNC(=O)CN(c2ccc(C(C)C)cc2)S(=O)(=O)c2c(C)nn(C)c2C)c1 -18.7%
CCCCC(=O)O[C@]1(C(=O)CO)[C@@H](C)C[C@H]2[C@@H]3CCC4=CC(=O)C=C[C@]4(C)[C@@]3(F)[C@@H](O)C[C@@]21C -15.9%
CO[C@]12C[C@@H](COC(=O)c3cncc(Br)c3)CN(C)[C@@H]1Cc1cn(C)c3cccc2c13 -12%
CCN(C(=O)Cn1cnc2onc(-c3ccc(F)cc3)c2c1=O)c1cc(C)ccc1C -19.5%
CCn1c(C(=O)NCc2cc(Br)ccc2OC)cc2oc3ccccc3c21 -8.4%
Cc1ccccc1OCC(=O)Nc1ccc2nc(SCc3ccccc3)sc2c1 -4.26%
CC(=O)c1ccc(NC(=O)c2nc(-c3ccc(C)cc3)n3c2CCCCC3)cc1 6.6%
Cc1ccc(OCC(=O)Nc2nc(-c3ccc(Br)cc3)ns2)cc1C -9.59%
COc1ccc(CNc2nc3ccccc3c3nc(-c4ccccc4)nn23)cc1 -5.18%
CCc1ccc(NS(=O)(=O)c2c(C)nc3sc(CC)nn3c2=O)cc1 -3.71%
Cc1ccc(C)c(CN2C(=O)C3(c4ccccc42)N(c2ccc(Cl)cc2)C(=O)CS3(=O)=O)c1 (centres undefined) -25.2%
COc1ccc(CCNC(=O)C2CCN(c3nc4ccccc4nc3C(F)(F)F)CC2)c(OC)c1 -25.2%
CC(=O)OCC(=O)[C@@]1(O)CC[C@H]2[C@@H]3CCC4=CC(=O)C=C[C@]4(C)[C@@]3(F)[C@@H](O)C[C@@]21C -6.03%
COc1ccc(-c2ccc(NS(=O)(=O)c3cccc(C)c3)cc2)nn1 -11.4%
COc1ccc(OCC(=O)NC2CC(=O)N(c3ccc4c(c3)OCCO4)C2)cc1 (centres undefined) -4.34%
CCOc1cccc(C2CC(=O)Nc3cc4c(cc32)OCCO4)c1 (centres undefined) -54.9%
CC(=O)N1c2ccccc2CC1C(=O)NCc1cccc(Cl)c1 (centres undefined) -3.32%
COc1ccc(-c2cc(C)no2)cc1S(=O)(=O)N1CCN(c2ccccc2F)CC1 9.65%
COc1ccc(CCNc2nc3c(-c4cccc(F)c4)nnn3c3ccccc23)cc1OC -19%
Cc1cccc(NC(=O)CSc2nc(-c3ccccc3Cl)nc3c2Cc2c(CO)cnc(C)c2O3)c1C -7.78%
CC1CCN(c2nc3c(S(=O)(=O)c4ccc(Cl)cc4)nnn3c3ccsc23)CC1 -13.7%
COc1cc(C(=O)N2CCOCC2)cc(OC)c1OC -14.2%
COc1cc2c(cc1OC)n(Cc1ccc([N+](=O)[O-])cc1)c(=O)n1nc(-c3ccccc3)nc21 -10.3%
COc1cc2c(cc1OC)C(COc1ccc3c(C)cc(=O)oc3c1)N(C(=O)c1ccccc1F)CC2 (centres undefined) 6.61%
Cc1ccccc1NC(=O)CSc1cn(CC(=O)N(C(C)C)C(C)C)c2ccccc12 -15.3%
COCCNC(=O)C1CCN(c2nc3ccccc3nc2C(F)(F)F)CC1 -12.1%
CCc1ccccc1NC(=O)c1ccc(CN2C(=O)CCn3nc(C)cc32)cc1 -8.9%
O=C(NCCC1=CCCCC1)c1ccc2c(=O)n3nc(Nc4ccccc4)sc3nc2c1 -2.16%
COc1ccc(NC(=O)c2c(NC(=O)COc3ccccc3)sc3c2CCC(C)C3)cc1 (centres undefined) -23.7%
O=C(Nc1ccccc1C(F)(F)F)c1ccc2oc(=O)c(S(=O)(=O)c3ccc(F)cc3)cc2c1 -19%
Cc1ccccc1CNC(=O)CN1C(=O)CSc2ccc(S(=O)(=O)N(C)C)cc21 -7.73%
COc1ccc(-c2noc(CCC(=O)Nc3ccc(C(F)(F)F)cc3)n2)cc1 -15.6%
COCCCNC(=O)c1cn(CCOC)c(=O)c2c1c1ccccc1n2C -9.62%
Cc1ccc(NC(=O)CSc2nnc3[nH]c(=O)cc(-c4ccccc4)n23)cc1Cl -17.3%
C#C[C@]1(O)CC[C@H]2[C@@H]3[C@H](C)CC4=C(CCC(=O)C4)[C@H]3CC[C@@]21C -10.1%
COc1ccc(CCNC(=O)Cc2c(C)c3c(cc(C)c4c(C)c(C)oc43)oc2=O)cc1 -7.39%
COc1ccccc1N1CCN(c2ncc3c(n2)CCN(Cc2ccccc2F)C3)CC1 -6.82%
Cc1ccc(CSc2oc(-c3cccs3)nc2S(=O)(=O)c2ccccc2)cc1 0.472%
CC(=O)c1ccc(N2CCN(c3ncnc4c3nc3n4CCCC3)CC2)cc1 -8.51%
CCc1ccc(OCC(=O)N(Cc2ccc(C)o2)C2CCS(=O)(=O)C2)cc1 (centres undefined) -4.98%
Cc1ccc(S(=O)(=O)N(CC(=O)NCCc2ccc(Cl)cc2)c2ccccc2C)cc1 -23.9%
